Test results: patent publication US8466161B2, “Hydroxamate derivative, a production method for the same, and a pharmaceutical composition comprising the same” (Chong Kun Dang Pharmaceutical Corp., priority 2009, dated 2013)
Some of these results come from one statement about several compounds together. For at least one compound, name, drawing or mass did not settle the structure.

Target: HDAC enzymes
Experiment: Effects against HDAC enzymes (BIOMOL kit, Hela nuclear extract)
Format: biochemical
Conditions: for IC50: Hela nuclear extract, 37° C. 1 hour; for HDAC inhibitory activity, times higher than LBH 589: relative to LBH 589; for HDAC inhibitory activity, times higher than SAHA and PXD 101: relative to SAHA and PXD 101

SMILES	IC50 [nM]	HDAC inhibitory activity, times higher than LBH 589	HDAC inhibitory activity, times higher than SAHA and PXD 101
CCN1CCN(C(=O)N(CCCCCCC(=O)NO)c2ccc(-c3ccc4c(cnn4C)c3)cc2)CC1 [Compound 351, 4-ethyl-N-(7-(hydroxyamino)-7-oxoheptyl)-N-(4-(1-methyl-1H-indazol-5-yl)phenyl)piperazine-1-carboxamide]	1 to 10	more than 10 times	more than 100 times
CS(=O)(=O)N(CCCCCCC(=O)NO)c1ccc(-c2ccc3cc[nH]c3c2)nc1 [Compound 326, 7-(N-(6-(1H-indol-6-yl)pyridin-3-yl)methylsulfonamido)-N-hydroxyheptanamide]	1 to 10	more than 10 times	more than 100 times
CN1CCN(C(=S)N(CCCCCCC(=O)NO)c2ccc(-c3ccc4[nH]ccc4c3)cc2)CC1 [Compound 358, 7-(N-(4-(1H-indol-5-yl)phenyl)-4-methylpiperazine-1-carbothioamido)-N-hydroxyheptanamide]	1 to 10	more than 10 times	more than 100 times
COc1cc(NC(=O)N(CCCCCCC(=O)NO)c2ccc(-c3ccc4cc[nH]c4c3)cc2)cc(OC)c1 [Compound 260, 7-(1-(4-(1H-indol-6-yl)phenyl)-3-(3,5-dimethoxyphenyl)ureido)-N-hydroxyheptanamide]	10 to 50	–	–
CN1CCN(C(=O)N(CCCCCCC(=O)NO)c2ccc(-c3ccc4c(cnn4C)c3)cc2)CC1 [Compound 350, N-(7-(hydroxyamino)-7-oxoheptyl)-4-methyl-N-(4-(1-methyl-1H-indazol-5-yl)phenyl)piperazine-1-carboxamide]	1 to 10	more than 10 times	more than 100 times
CCN1CCN(C(=O)N(CCCCCCC(=O)NO)c2ccc(-c3ccc4cnn(C)c4c3)cc2)CC1 [Compound 336, 4-ethyl-N-(7-(hydroxyamino)-7-oxoheptyl)-N-(4-(1-methyl-1H-indazol-6-yl)phenyl)piperazine-1-carboxamide]	1 to 10	more than 10 times	more than 100 times
Cn1ncc2ccc(-c3ccc(N(CCCCCCC(=O)NO)S(C)(=O)=O)cn3)cc21 [Compound 327, N-hydroxy-7-(N-(6-(1-methyl-1H-indazol-6-yl)pyridin-3-yl)methylsulfonamido)heptanamide]	1 to 10	more than 10 times	more than 100 times
Cn1ncc2ccc(-c3ccc(N(CCCCCCC(=O)NO)S(C)(=O)=O)cc3)cc21 [Compound 284, N-hydroxy-7-(N-(4-(1-methyl-1H-indazol-6-yl)phenyl)methylsulfonamido)heptanamide]	1 to 10	more than 10 times	more than 100 times
CN1CCN(C(=S)N(CCCCCCC(=O)NO)c2ccc(-c3ccc4cc[nH]c4c3)cc2)CC1 [Compound 357, 7-(N-(4-(1H-indol-6-yl)phenyl)-4-methylpiperazine-1-carbothioamido)-N-hydroxyheptanamide]	1 to 10	more than 10 times	more than 100 times
CN(C)S(=O)(=O)N(CCCCCCC(=O)NO)c1ccc(-c2ccc3cc[nH]c3c2)cc1 [Compound 277, 7-((4-(1H-indol-6-yl)phenyl)(N,N-dimethylsulfamoyl)amino)-N-hydroxyheptanamide]	10 to 50	–	–
CN1CCN(S(=O)(=O)N(CCCCCCC(=O)NO)c2ccc(-c3ccc4cnn(C)c4c3)cc2)CC1 [Compound 342, N-hydroxy-7-(4-methyl-N-(4-(1-methyl-1H-indazol-6-yl)phenyl)piperazine-1-sulfonamido)heptanamide]	1 to 10	more than 10 times	more than 100 times
CS(=O)(=O)N(CCCCCCC(=O)NO)c1ccc(-c2ccc3cc[nH]c3c2)cc1 [Compound 264, 7-(N-(4-(1H-indol-6-yl)phenyl)methylsulfonamido)-N-hydroxyheptanamide]	1 to 10	more than 10 times	more than 100 times
Cc1cc2cc(-c3ccc(N(CCCCCCC(=O)NO)S(C)(=O)=O)cc3)ccc2[nH]1 [Compound 296, N-hydroxy-7-(N-(4-(2-methyl-1H-indol-5-yl)phenyl)methylsulfonamido)heptanamide]	1 to 10	–	–
CN1CCN(C(=O)N(CCCCCCC(=O)NO)c2ccc(-c3ccc4c(ccn4C)c3)cc2)CC1 [Compound 341, N-(7-(hydroxyamino)-7-oxoheptyl)-4-methyl-N-(4-(1-methyl-1H-indol-5-yl)phenyl)piperazine-1-carboxamide]	1 to 10	more than 10 times	more than 100 times
CN1CCN(C(=O)N(CCCCCCC(=O)NO)c2ccc(-c3ccc4[nH]ccc4c3)cc2)CC1 [Compound 313, N-(4-(1H-indol-5-yl)phenyl)-N-(7-(hydroxyamino)-7-oxoheptyl)-4-methylpiperazine-1-carboxamide]	1 to 10	more than 10 times	more than 100 times
CN(C)CC(=O)N(CCCCCCC(=O)NO)c1ccc(-c2ccc3cc[nH]c3c2)cc1 [Compound 265, 7-(N-(4-(1H-indol-6-yl)phenyl)-2-(dimethylamino)acetamido)-N-hydroxyheptanamide]	50 to 100	–	–
CS(=O)(=O)N(CCCCCCC(=O)NO)c1ccc(-c2ccc3[nH]ccc3c2)nc1 [Compound 328, 7-(N-(6-(1H-indol-5-yl)pyridin-3-yl)methylsulfonamido)-N-hydroxyheptanamide]	1 to 10	more than 10 times	more than 100 times
CN1CCN(C(=S)N(CCCCCCC(=O)NO)c2ccc(-c3ccc4c(cnn4C)c3)cc2)CC1 [Compound 359, N-hydroxy-7-(4-methyl-N-(4-(1-methyl-1H-indazol-5-yl)phenyl)piperazine-1-thiocarboamido)heptanamide]	1 to 10	more than 10 times	more than 100 times
CN1CCN(C(=O)N(CCCCCCC(=O)NO)c2ccc(-c3ccc4cnn(C)c4c3)cc2)CC1 [Compound 312, N-(7-(hydroxyamino)-7-oxoheptyl)-4-methyl-N-(4-(1-methyl-1H-indazol-6-yl)phenyl)piperazine-1-carboxamide]	1 to 10	more than 10 times	more than 100 times

More lines, now with the values ahead:

IC50 [nM]	HDAC inhibitory activity, times higher than LBH 589	HDAC inhibitory activity, times higher than SAHA and PXD 101	SMILES
10 to 50	–	–	O=C(CCCCCCN(C(=O)c1ccccn1)c1ccc(-c2ccc3cc[nH]c3c2)cc1)NO [Compound 211, N-(4-(1H-indol-6-yl)phenyl)-N-(7-(hydroxyamino)-7-oxoheptyl)picolinamide]
50 to 100	–	–	Cn1ncc2ccc(-c3ccc(N(CCCCCCC(=O)NO)C(=O)c4cccnc4)cc3)cc21 [Compound 270, N-(7-(hydroxyamino)-7-oxoheptyl)-N-(4-(1-methyl-1H-indazol-6-yl)phenyl)nicotinamide]
1 to 10	more than 10 times	more than 100 times	O=C(CCCCCCN(C(=O)c1ccccn1)c1ccc(-c2ccc3[nH]ccc3c2)cc1)NO [Compound 305, N-(4-(1H-indol-5-yl)phenyl)-N-(7-(hydroxyamino)-7-ooxheptyl)picolinamide]
1 to 10	more than 10 times	more than 100 times	CCNC(=O)N(CCCCCCC(=O)NO)c1ccc(-c2ccc3cc[nH]c3c2)cc1 [Compound 295, 7-(1-(4-(1H-indol-6-yl)phenyl)-3-ethylureido)-N-hydroxyheptanamide]
10 to 50	–	–	COc1cccc(NC(=O)N(CCCCCCC(=O)NO)c2ccc(-c3ccc4cc[nH]c4c3)cc2)c1 [Compound 256, 7-(1-(4-(1H-indol-6-yl)phenyl)-3-(3-methoxyphenyl)ureido)-N-hydroxyheptanamide]
50 to 100	–	–	CNC(=O)N(CCCCCCC(=O)NO)c1ccc(-c2ccc3cc[nH]c3c2)cc1 [Compound 275, 7-(1-(4-(1H-indol-6-yl)phenyl)-3-methylureido)-N-hydroxyheptanamide]
10 to 50	–	–	COc1ccc(C(=O)N(CCCCCCC(=O)NO)c2ccc(-c3ccc4cc[nH]c4c3)cc2)cc1 [Compound 180, N-(4-(1H-indol-6-yl)phenyl)-N-(7-(hydroxyamino)-7-oxoheptyl)-4-methoxybenzamide]
10 to 50	–	–	CCOC(=O)N(CCCCCCC(=O)NO)c1ccc(-c2ccc3cc[nH]c3c2)cc1 [Compound 267, Ethyl 4-(1H-indol-6-yl)phenyl(7-(hydroxyamino)-7-oxoheptyl)carbamate]
1 to 10	more than 10 times	more than 100 times	O=C(CCCCCCN(C(=O)C1CC1)c1ccc(-c2ccc3cc[nH]c3c2)cc1)NO [Compound 279, N-(4-(1H-indol-6-yl)phenyl)-N-(7-(hydroxyamino)-7-oxoheptyl)cyclopropanecarboxamide]
10 to 50	–	–	O=C(CCCCCCN(C(=O)c1cccnc1)c1ccc(-c2ccc3cc[nH]c3c2)cc1)NO [Compound 181, N-(4-(1H-indol-6-yl)phenyl)-N-(7-(hydroxyamino)-7-oxoheptyl)nicotinamide]
1 to 10	more than 10 times	more than 100 times	O=C(CCCCCCN(c1ccc(-c2ccc3cc[nH]c3c2)cc1)S(=O)(=O)c1cccnc1)NO [Compound 263, 7-(N-(4-(1H-indol-6-yl)phenyl)pyridine-3-sulfonamido)-N-hydroxyheptanamide]
